The record followed here is paper PMC6602295, “Structural mechanism for guanylate-binding proteins (GBPs) targeting by the Shigella E3 ligase IpaH9.8” (PLoS Pathogens, 2019).

No constants are given. Whether binding was seen depends on the method and setting. In cells and extracts the contact can be indirect. Some binding calls cover weakened binding; strength is not graded here. For some assays here: Where a sequence is shown, tags or fusion partners need not be part of it.

One experiment has as its target T1, Flag tagged GBP6 (human) (UniProt Q6ZN66).
T1 sequence: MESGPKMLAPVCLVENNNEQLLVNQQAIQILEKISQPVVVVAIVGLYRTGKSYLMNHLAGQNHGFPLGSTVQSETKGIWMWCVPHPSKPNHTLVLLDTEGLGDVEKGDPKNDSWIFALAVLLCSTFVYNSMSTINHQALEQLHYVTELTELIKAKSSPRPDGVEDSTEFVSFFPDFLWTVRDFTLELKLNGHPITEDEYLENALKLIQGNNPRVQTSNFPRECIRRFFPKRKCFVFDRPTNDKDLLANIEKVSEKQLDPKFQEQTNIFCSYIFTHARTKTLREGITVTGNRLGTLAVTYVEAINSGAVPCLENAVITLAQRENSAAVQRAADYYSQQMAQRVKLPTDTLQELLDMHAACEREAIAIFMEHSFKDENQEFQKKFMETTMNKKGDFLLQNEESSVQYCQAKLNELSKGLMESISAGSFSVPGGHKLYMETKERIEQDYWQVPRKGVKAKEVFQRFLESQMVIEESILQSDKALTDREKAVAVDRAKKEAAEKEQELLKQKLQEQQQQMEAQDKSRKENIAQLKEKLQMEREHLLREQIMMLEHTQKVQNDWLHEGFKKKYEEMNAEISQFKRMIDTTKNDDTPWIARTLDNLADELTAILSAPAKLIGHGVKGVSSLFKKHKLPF
Kind of experiment: co-IP; Flag tagged GBPs co-expressed with 6xMyc tagged IpaH9.8-C337A or its mutants in HEK293T; GBPs immunoprecipitated with Flag-M2 beads, eluted with 3x Flag peptide, associated IpaH detected by immunoblotting; lysis buffer 25 mM Tris-HCl pH 8.0, 2 mM MgCl2, 1 mM GTP, 0.5% Triton X-100.

The next experiment addresses T2, Flag tagged GBP1 (human) (UniProt P32455).
T2 sequence: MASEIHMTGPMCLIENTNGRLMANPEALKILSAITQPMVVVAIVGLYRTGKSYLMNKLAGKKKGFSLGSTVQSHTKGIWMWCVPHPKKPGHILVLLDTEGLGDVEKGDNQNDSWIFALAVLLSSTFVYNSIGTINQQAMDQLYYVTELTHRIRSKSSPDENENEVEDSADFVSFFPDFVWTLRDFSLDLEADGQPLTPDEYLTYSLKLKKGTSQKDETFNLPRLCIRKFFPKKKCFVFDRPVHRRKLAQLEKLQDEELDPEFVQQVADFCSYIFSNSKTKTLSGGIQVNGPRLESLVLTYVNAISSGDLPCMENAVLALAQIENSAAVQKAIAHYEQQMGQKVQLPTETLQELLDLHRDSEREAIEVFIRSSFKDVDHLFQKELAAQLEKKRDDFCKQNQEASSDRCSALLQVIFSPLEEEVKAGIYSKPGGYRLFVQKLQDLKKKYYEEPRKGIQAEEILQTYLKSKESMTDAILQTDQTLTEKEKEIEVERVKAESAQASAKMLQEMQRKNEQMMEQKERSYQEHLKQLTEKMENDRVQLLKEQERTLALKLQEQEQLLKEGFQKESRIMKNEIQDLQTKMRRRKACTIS
The description is as above.

The target of the next experiment is T3, Flag tagged GBP4 (human) (UniProt Q96PP9).
T3 sequence: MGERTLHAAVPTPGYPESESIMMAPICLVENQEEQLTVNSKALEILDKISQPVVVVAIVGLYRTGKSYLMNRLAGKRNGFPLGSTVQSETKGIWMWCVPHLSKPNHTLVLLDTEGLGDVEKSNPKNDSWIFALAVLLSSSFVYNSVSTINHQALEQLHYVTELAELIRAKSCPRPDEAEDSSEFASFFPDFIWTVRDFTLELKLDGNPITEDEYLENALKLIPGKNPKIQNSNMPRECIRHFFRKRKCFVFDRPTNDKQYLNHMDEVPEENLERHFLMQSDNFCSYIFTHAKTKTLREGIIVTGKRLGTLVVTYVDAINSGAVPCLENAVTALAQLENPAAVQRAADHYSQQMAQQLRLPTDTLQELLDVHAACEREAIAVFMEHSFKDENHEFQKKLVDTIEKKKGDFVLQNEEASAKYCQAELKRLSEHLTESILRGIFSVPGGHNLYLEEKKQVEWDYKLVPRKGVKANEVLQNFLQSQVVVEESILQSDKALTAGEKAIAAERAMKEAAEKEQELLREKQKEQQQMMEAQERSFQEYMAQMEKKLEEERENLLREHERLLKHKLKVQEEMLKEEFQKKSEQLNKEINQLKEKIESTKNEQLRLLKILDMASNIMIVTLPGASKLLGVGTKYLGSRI
The description is as above.

For a further experiment, the target named is T4, Flag tagged GBP2 (human) (UniProt P32456).
T4 sequence: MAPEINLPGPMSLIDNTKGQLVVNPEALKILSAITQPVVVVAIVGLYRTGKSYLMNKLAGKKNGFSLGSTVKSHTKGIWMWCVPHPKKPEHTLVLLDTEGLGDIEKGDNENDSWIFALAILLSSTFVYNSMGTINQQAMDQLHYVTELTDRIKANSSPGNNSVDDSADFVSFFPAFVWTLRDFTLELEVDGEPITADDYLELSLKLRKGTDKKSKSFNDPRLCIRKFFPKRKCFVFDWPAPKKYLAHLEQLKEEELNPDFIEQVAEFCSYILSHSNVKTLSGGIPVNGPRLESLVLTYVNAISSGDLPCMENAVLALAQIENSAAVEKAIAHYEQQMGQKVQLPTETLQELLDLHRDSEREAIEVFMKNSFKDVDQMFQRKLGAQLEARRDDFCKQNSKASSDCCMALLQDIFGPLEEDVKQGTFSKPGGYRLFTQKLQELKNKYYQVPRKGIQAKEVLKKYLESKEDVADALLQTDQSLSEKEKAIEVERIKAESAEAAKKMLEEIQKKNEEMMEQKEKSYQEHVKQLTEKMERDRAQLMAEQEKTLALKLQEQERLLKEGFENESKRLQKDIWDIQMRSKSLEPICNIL
Described as above.

Experiment [1] addresses T5, GBP3-M (GBP3 with Lys105 mutated to Glu) (human) (UniProt Q9H0R5).
T5 sequence: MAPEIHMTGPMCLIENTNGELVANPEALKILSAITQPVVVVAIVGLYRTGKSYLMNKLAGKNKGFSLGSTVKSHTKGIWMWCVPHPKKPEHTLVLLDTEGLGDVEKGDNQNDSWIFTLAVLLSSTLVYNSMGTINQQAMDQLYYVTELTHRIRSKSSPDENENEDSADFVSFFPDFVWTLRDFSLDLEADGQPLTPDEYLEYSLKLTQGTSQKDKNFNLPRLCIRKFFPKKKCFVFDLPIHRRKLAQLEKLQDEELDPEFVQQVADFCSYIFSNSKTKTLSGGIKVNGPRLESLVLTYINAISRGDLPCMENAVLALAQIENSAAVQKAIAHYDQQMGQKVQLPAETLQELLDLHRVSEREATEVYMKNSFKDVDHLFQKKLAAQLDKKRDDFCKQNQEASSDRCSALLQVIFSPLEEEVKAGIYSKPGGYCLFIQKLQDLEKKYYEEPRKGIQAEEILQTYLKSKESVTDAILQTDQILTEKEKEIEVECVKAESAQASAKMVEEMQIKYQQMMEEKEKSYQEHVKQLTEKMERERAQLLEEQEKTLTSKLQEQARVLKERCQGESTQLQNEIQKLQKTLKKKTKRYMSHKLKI
Kind of experiment: co-IP; HA or Flag tagged GBPs co-expressed with Flag or Myc tagged IpaH9.8-C337A in HEK293T; immunoprecipitation with Flag-M2 beads from the lysates, associated proteins analysed by immunoblotting; lysis buffer with 2 mM MgCl2 and 1 mM GTP. A general note: Immunoblotting shows a protein as a band on a membrane.

Turning to “6xMyc tagged IpaH9.8-C337A (from UniProt Q8VSC3 1-545) (enzyme)”, the binding entry with Flag tagged GBP6 (human), with Flag tagged GBP1 (human), with Flag tagged GBP4 (human) and in the experiment with Flag tagged GBP2 (human) was “binds” throughout.

With “6xMyc tagged IpaH9.8-Y86A/Q88A/C337A (from UniProt Q8VSC3 1-545) (enzyme)”, the binding entry in the experiment with Flag tagged GBP6 (human), in the experiment with Flag tagged GBP4 (human) and with Flag tagged GBP2 (human) was “no binding” in each case.

On to “Flag or Myc tagged IpaH9.8-C337A (Fig 3b) (from UniProt Q8VSC3 1-545) (enzyme)”, for which, in experiment [1], the binding entry is on record as “binds”.
